Source: article PMC4336329 (PLoS ONE, 2015)
The whole screen tested about 310,000 compounds, of which about 2,200 (0.71%) showed an effect of 50% or more. The effect is printed as a negative number. This is one part of the list.

Target: human ether-à-go-go-related gene (hERG) potassium channel (human, UniProt Q12809)
Test: primary screen, population patch clamp on CHO cells stably expressing hERG

Chain of human ether-à-go-go-related gene (hERG) potassium channel (Q12809 whole entry, looked up): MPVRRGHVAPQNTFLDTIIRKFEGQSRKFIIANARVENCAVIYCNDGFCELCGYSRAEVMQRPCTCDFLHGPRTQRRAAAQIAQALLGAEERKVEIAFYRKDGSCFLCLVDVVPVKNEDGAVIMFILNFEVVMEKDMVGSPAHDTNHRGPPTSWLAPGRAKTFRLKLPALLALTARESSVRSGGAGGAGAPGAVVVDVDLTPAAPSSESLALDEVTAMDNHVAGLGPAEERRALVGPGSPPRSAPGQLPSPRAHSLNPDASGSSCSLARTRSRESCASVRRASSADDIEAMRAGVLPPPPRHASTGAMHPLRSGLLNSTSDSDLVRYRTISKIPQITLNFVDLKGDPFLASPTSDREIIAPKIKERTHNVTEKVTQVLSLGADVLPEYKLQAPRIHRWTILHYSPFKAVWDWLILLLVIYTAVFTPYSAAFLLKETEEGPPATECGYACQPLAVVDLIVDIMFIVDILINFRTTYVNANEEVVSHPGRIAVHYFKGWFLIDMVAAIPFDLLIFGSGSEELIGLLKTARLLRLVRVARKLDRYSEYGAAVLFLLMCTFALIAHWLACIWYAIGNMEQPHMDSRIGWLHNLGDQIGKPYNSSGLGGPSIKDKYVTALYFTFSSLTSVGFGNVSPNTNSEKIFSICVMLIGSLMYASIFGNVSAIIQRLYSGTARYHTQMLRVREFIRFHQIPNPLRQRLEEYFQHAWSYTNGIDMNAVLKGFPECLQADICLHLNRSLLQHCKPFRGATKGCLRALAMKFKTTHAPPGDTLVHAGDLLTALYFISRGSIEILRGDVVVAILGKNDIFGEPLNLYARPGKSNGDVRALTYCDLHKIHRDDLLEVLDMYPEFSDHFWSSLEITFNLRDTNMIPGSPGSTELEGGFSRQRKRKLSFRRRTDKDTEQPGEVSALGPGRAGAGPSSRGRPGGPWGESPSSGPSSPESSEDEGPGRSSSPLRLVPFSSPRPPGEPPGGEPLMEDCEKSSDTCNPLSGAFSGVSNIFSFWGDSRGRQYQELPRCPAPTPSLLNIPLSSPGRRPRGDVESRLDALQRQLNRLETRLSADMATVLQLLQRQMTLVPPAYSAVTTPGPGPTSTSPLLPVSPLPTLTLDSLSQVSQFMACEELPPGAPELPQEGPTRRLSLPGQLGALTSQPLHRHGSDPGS

| Compound | hERG current change (%, negative = inhibition) at 1uM [%] |
| --- | --- |
| O=c1[nH]c(/C=C/c2ccc([N+](=O)[O-])cc2)c([N+](=O)[O-])c(=O)[nH]1 | 13.5 |
| COCCn1c(C)cc2c(c1=O)C(c1ccco1)C(C#N)=C(N)O2 (stereo not shown) | 14.1 |
| CCOc1cccc(C(=O)NC(=S)Nc2ccc(N3CCN(CC)CC3)cc2)c1 | -1.79 |
| CC1CCCN(C(=O)CSc2nnc(-c3cccs3)o2)C1 (stereo not shown) | 15.8 |
| COc1ccccc1N/C=C/C(=C(C#N)C#N)N(C)C | 8.57 |
| CCSc1cc(C)nc2c(-c3ccccc3)cnn12 | 8.93 |
| CCn1cc(C(=O)NCC(C)C)c(=O)c2cc(F)c(N3CCN(C)CC3)cc21 | 9.68 |
| CCOc1ccc(NC(=O)c2ccccc2NC(=O)CN2CCN(C(C)=O)CC2)cc1 | 8.68 |
| NC(=O)CCC(NS(=O)(=O)c1ccc(Cl)cc1)C(=O)NCC1CCCCC1 (stereo not shown) | 14.7 |
| CCCCn1c(O)c(C(C)=Nc2ccc3c(c2)CCC3)c(=O)[nH]c1=O | 8.9 |
| COc1ccc(OC)c2sc(NC(=O)c3ccc(S(=O)(=O)N(C)C)cc3)nc12 | 7.51 |
| CCOC(=O)N1CCN(C(=S)NC(=O)C2CCCC2)CC1 | 0.69 |
| Cc1ccc(N2C(=O)Nc3ccc(Br)cc3C2(O)C(=O)NCCCN(C)C)cc1C (stereo not shown) | 4.62 |
| CCCNC(=O)C(Cc1cccc(Cl)c1)NC(=O)c1ccccc1 (stereo not shown) | 14.7 |
| COc1cc(NC(=O)CSCC(=O)Nc2cccc(C(F)(F)F)c2)c(Cl)cc1Cl | 13.7 |
| CCOC(=O)C1CCN(C(=O)CSCCSCC(=O)N2CCC(C(=O)OCC)CC2)CC1 | -10.2 |
| O=C(Cn1nc(Cc2cccnc2)c2ccccc2c1=O)NCC1CCCO1 (stereo not shown) | 14.4 |
| CCSc1nnc(NC(=O)CC)s1 | 8.29 |
| Cc1nnc(SC(C)C(=O)NC2CCCc3ccccc32)n1-c1ccccc1 (stereo not shown) | 9.46 |
| O=C(CN1C(=O)c2ccccc2S1(=O)=O)c1ccc(O)c(O)c1 | 11.2 |
| CC(C)CC(C(=O)OCC(=O)c1c(N)n(C)c(=O)n(C)c1=O)N1C(=O)C2CC=CCC2C1=O (stereo not shown) | 4.11 |
| O=S(=O)(c1ccccc1)N1CCN(C(=S)NCCc2ccccc2)CC1 | 14.4 |

| Compound | hERG current change (%, negative = inhibition) at 1uM [%] |
| --- | --- |
| COCc1cc(C)nc(SCC[N+](C)(C)CC(=O)Nc2cccc(C(F)(F)F)c2)c1C#N.[Cl-] | 13 |
| CCOc1cc(/C=C2/C(=N)N3N=C(CC)SC3=NC2=O)ccc1OC(=O)c1ccco1 | 23.7 |
| C1CN(c2nc3nonc3nc2N2C[C@H]3CC[C@H]2C3)CCS1 | 8.41 |
| CC(C)n1cc(CN2CCCC(C(=O)Nc3ccccc3Oc3cccnc3)C2)cn1 (stereo not shown) | -19.5 |
| COC(=O)[C@H](CCSC)NC(=O)NC1CCN(Cc2ccccc2)CC1 | -14.6 |
| COc1ccccc1NC(=O)CN1C(=O)C(C)SC(C)C1=O (stereo not shown) | 14 |
| CCC(C(=O)N1CCN(c2ccccc2OC)CC1)c1ccccc1 (stereo not shown) | 14.8 |
| CCOc1ccc(OCC(=O)NCCc2nc3ccccc3[nH]2)cc1 | 3.28 |
| COc1ccc(C2c3ccc4ccccc4c3Oc3ncn(CCN4CCOCC4)c(=N)c32)cc1 (stereo not shown) | -42.6 |
| COc1ccc(CNC(=O)CN(c2ccc(OC)cc2)S(=O)(=O)c2c(C)[nH]c(=O)[nH]c2=O)cc1 | 16.2 |
| Nc1ccc(C2(c3ccc(N)cc3)C(=O)Nc3ccccc32)cc1 | 3.74 |
| O=C(Nc1ccccc1N1CCCC1)c1cccnc1Cl | 6.63 |
| CCOC(=O)N1CCN(C(=O)CSc2ccc(Cl)cc2)CC1 | -3.42 |
| Cc1c(C(=O)Nc2ccccc2)sc2ncn(CC(=O)N3CCCCC3)c(=O)c12 | 1.29 |
| COc1ccccc1CNC(=O)c1ccc(NS(C)(=O)=O)cc1 | 8.04 |
| C=CCOc1ccccc1CNc1ccc2[nH]c(=O)[nH]c2c1 | 12.6 |
| Cc1cc(/C=C2/SC(=O)N(CC(=O)N3CCOCC3)C2=O)c(C)n1-c1ccccc1F | 5.92 |
| CCOC(=O)C1=C(CNC2CCCCC2)NC(=O)NC1c1cc(C)ccc1C (stereo not shown) | 11.8 |
| COc1ccccc1NC(=O)Cn1nc(C)n2cccc2c1=O | 10.1 |
| CCc1ccc(C2c3[nH]c4ccccc4c3CCN2C(=O)CNC(N)=O)cc1 (stereo not shown) | 4.14 |
| CCOc1cc(-c2nc(-c3ccc(C)nc3OCC)no2)cc(OCC)c1OCC | 15.6 |
| CCN(CC)C(=O)CSc1nnc(-c2ccncc2)n1N | 18.2 |

| Compound | hERG current change (%, negative = inhibition) at 1uM [%] |
| --- | --- |
| CSc1ncccc1C(=O)OCC(=O)NC1CCCC1 | 9.09 |
| Cc1cc(C)cc(NC(=O)N2CCCN(c3c(Cl)cncc3Cl)CC2)c1 | 6.97 |
| O=C(CCC1CCN(Cc2ccccc2O)CC1)NC1CC1 | 7.58 |
| COc1ccc(NS(=O)(=O)c2cccc(C(=O)NCC(c3ccco3)N3CCCCC3)c2)cc1 (stereo not shown) | 6.24 |
| Cc1ccc(NS(=O)(=O)c2cccs2)c(C)c1 | 7.06 |
| Cc1cc2ccccc2n2c(SCC(=O)Nc3ccc(S(=O)(=O)N4CCC(C)CC4)cc3)nnc12 | 20.2 |
| Cc1ccc(S(=O)(=O)NCCSCc2ccccc2)cc1 | 7.87 |
| O=C(Nc1cccnc1Cl)C1c2ccccc2Oc2ccccc21 | 2.26 |
| Cc1cnc(C(=O)OCC(=O)NCc2cccc(Cl)c2)cn1 | 5.46 |
| O=C(NC1CCCCC1)c1cc(C2CC2)on1 | 14 |
| Cc1cc(C)c(NC(=O)c2oc3ccccc3c2COc2ccccc2)c(C)c1 | 2.85 |
| N/C(=N\O)c1ccccc1-n1cccc1 | 11.2 |
| O=c1[nH]c([N+](=O)[O-])nn1C(c1ccccc1)c1ccccc1 | 4.19 |
| Cc1n[nH]c(=O)nc1N/N=C/c1ccc(O)c([N+](=O)[O-])c1 | -6.33 |
| CCN(CC)CCNC(=O)/C(=C/c1cn(C)c2ccccc12)NC(=O)c1ccc(OC)c(OC)c1 | 13.2 |
| CC(C)(CC(=O)O)CC(=O)Nc1ccc(Cl)c(Cl)c1 | 12.7 |
| CCOC(=O)N1CCN(C(=O)C2CCN(S(=O)(=O)c3ccc(OC)cc3)CC2)CC1 | 3.66 |
| CC(C)(C)c1nnc(NC(=O)c2cccs2)s1 | 11 |
| C/C(=C/c1oc2ccc(O)cc2c1[N+](=O)[O-])N(C)C | 6.22 |
| CCOC(=O)c1oc2ccccc2c1NC(=O)c1ccc(S(=O)(=O)N2CCCC2)cc1 | -6.45 |
| CC(NC(=O)c1ccc(F)cc1)c1ccc2c(c1)CCCC2 (stereo not shown) | 12.8 |
| CCn1c(CCC(=O)N(C)CC(=O)Nc2cccc(F)c2)nc2cc(S(=O)(=O)N(C)C)ccc21 | 13.7 |

| Compound | hERG current change (%, negative = inhibition) at 1uM [%] |
| --- | --- |
| COc1ccccc1CN1CC(C(=O)NCCC2=CCCCC2)CCC1=O (stereo not shown) | 6.11 |
| CC1(C)Cc2nc(Cl)c(C(N)=O)cc2CO1 | 17.2 |
| O=C(O)COc1ccc(/C=C/C(=O)c2ccc(C3CCCCC3)cc2)cc1 | 8.08 |
| CN1CCc2c(sc(NC(=O)c3ccc([N+](=O)[O-])o3)c2C(N)=O)C1.Cl | 4.48 |
| CC1(C)[C@@H](O)CC[C@]2(C)C3C(O)C=C4[C@H]5C[C@@](C)(CO)CC[C@]5(C)CC[C@]4(C)[C@]3(C)CC[C@@H]12 (stereo partly shown) | 15.4 |
| N#C/C(=C\c1ccc(-c2ccc(C(=O)O)cc2)o1)C(=O)Nc1ccc(F)cc1 | 12.6 |
| COc1ccc(CNC(=O)C2(CC(=O)NC(C)(C)C)CCCC2)cc1 | 5.32 |
| COc1cc(CC(=O)OCC(=O)Nc2ccc(Cl)c(S(=O)(=O)N(C)C)c2)cc(OC)c1OC | 1.18 |
| Cc1ccc(C(=O)c2c[nH]c(C(=O)NCCCN3CCOCC3)c2)cc1 | 1.28 |
| CCc1ccc(CN(C)CCc2ccccn2)cc1 | -34.7 |
| COC(=O)C1=C(c2ccc(C(C)=O)cc2)C[C@@H]2CC[C@H]1N2C(=O)NCC1CC1 | 9.4 |
| O=C(O)c1ccc(CNc2ccccc2C(=O)O)cc1 | 11.2 |
| O=C(Nc1ccccc1[N+](=O)[O-])c1nc[nH]c1C(=O)NCCO | 7.16 |
| CCOC(=O)N1CCN(CCC(=O)Nc2ccccc2OC)CC1 | 13.1 |
| CCN(CC)CCNC(=O)COc1ccc(Cl)cc1Cl | -5.78 |
| COc1cccc(N2CCN(C(=S)NCc3ccco3)CC2)c1 | -0.97 |
| Cl.Oc1ccc(Nc2ncnc3scc(-c4ccccc4)c23)cc1 | 3.98 |
| COc1ccc2[nH]c(=O)c(-c3nnn(-c4ccc(Cl)nc4)n3)cc2c1 | 16.5 |
| Cc1cccc(NC(=O)CCS(=O)(=O)c2ccc3c(c2)NC(=O)CS3)n1 | 13.5 |
| O=c1c2c(nc3cc(-c4ccccc4Cl)[nH]n13)CCS2 | 12.5 |
| CC1=CC(C)(C)NC(=S)N1c1ccc(C)cc1 | 8.38 |
| CN(C)S(=O)(=O)c1cc(NC(=O)Cn2ccsc2=N)ccc1Cl.Cl | -5.25 |
